# Experimental data taken from publication PMC4336329 (PLoS ONE, 2015).
# Out of some 310,000 compounds screened, about 2,200 (0.71%) showed an effect of 50% or more. Effects have a minus sign here. The list shows a part of the results.
# Molecular target: human ether-à-go-go-related gene (hERG) potassium channel (human, UniProt Q12809)
# Assay: primary screen, population patch clamp on CHO cells stably expressing hERG
# human ether-à-go-go-related gene (hERG) potassium channel, sequence (Q12809 whole entry, looked up): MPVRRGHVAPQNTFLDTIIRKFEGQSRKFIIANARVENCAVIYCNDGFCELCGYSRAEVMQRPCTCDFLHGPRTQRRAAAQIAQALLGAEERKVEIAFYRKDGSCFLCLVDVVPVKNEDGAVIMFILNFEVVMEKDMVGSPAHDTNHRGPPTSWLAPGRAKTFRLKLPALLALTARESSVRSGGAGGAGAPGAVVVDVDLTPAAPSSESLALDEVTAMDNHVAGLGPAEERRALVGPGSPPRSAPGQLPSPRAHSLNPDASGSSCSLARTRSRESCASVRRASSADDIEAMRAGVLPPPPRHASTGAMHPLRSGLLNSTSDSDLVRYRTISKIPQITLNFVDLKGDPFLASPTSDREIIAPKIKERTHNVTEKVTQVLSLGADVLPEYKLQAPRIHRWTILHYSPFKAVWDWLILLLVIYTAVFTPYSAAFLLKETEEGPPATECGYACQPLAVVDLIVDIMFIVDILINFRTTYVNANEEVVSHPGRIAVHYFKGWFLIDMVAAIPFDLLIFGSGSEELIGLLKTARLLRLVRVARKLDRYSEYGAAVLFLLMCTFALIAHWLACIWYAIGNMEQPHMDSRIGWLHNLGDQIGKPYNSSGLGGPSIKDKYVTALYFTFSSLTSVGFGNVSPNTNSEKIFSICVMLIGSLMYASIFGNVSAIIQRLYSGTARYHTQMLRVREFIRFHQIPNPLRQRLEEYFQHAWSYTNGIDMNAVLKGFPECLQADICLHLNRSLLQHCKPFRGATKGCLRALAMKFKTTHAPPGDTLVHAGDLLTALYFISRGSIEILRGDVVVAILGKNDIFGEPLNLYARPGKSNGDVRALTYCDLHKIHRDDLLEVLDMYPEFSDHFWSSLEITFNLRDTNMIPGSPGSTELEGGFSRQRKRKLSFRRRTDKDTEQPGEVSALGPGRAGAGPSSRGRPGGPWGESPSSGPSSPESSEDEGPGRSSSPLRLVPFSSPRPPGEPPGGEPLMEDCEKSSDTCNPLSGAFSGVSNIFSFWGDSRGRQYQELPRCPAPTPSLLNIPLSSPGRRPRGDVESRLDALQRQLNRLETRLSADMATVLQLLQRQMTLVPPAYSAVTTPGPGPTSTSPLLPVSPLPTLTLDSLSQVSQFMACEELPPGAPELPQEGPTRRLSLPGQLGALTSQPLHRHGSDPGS
row,Structure (SMILES),"hERG current change (%, negative = inhibition) at 1uM"
1,Cc1cc(C)c(C#N)c(SCS(=O)Cc2ccccc2)n1 (stereo not shown),17.4%
2,COc1ccc(OCCNS(=O)(=O)c2ccccc2)cc1,-13%
3,CCCCCSc1nc2c(cnn2-c2ccc(F)cc2)c(=O)[nH]1,11.5%
4,N#C/C(=C(/O)CCl)c1nc(-c2ccccc2)cs1,7.2%
5,CNc1c(NS(=O)(=O)c2ccc(Cl)cc2)c(=O)oc2ccccc12,12%
6,O=C(C1CCCO1)N1CCN(c2c3c(nc4cc(-c5ccc(F)cc5)nn24)CCC3)CC1 (stereo not shown),3.64%
7,CC(=O)Nc1cccc(NC(=O)c2ccc3c(c2)CCN3S(C)(=O)=O)c1,14%
8,CCC(CC)c1nnc(NC(=O)[C@@H](NC(=O)c2cccc(C)c2)C(C)C)s1,8.72%
9,Cc1cc(=O)oc2c3c(cc(OCC(=O)NCC(=O)N[C@H](C(=O)O)C(C)C)c12)OC(C)(C)CC3,6.84%
10,Cc1ccc(S(=O)(=O)N(C)CC(=O)Nc2ccc3c(c2)OCO3)cc1,7.45%
11,Cc1ccccc1-c1nc(CN(Cc2c(C)nn(C)c2C)C2CC2)c(C)o1,10.2%
12,COc1cc(/C=N\NC(=O)C(C)(C)O)ccc1OC/C=C/c1ccccc1,13%
13,CN(Cc1cccc(C(F)(F)F)c1)C(=O)C1CCC(=O)N(CC2CCCCC2)C1 (stereo not shown),8.5%
14,Cc1sc2nc(C3CC3)nc(SCC(=O)N3c4ccccc4CC3C)c2c1C (stereo not shown),9.05%
15,CCOc1cc(CN2CCCC(C(=O)c3cccc(C(F)(F)F)c3)C2)ccc1O (stereo not shown),6.84%
16,O=c1[nH]c(SCC2CCCCO2)nc2ccccc12 (stereo not shown),7.98%
17,CC(C)CC(c1nnnn1C(C)C)N1CCN(c2ccccc2)CC1 (stereo not shown),4.06%
18,O=C(NCCS(=O)(=O)N1CCN(c2cccc(Cl)c2)CC1)c1ccco1,-14.1%
19,Cc1cccc(NC(=O)Nc2ccc(C)c(C)c2)n1,8.52%
20,CCCCNC(=O)c1onc(CSc2ccc(Cl)cc2)c1C(=O)NCCCC,-13.2%
21,O=C(Nc1cccnc1)C1CCCN(S(=O)(=O)c2cccc3nsnc23)C1 (stereo not shown),8.02%
22,Cc1cccc(OCCCC(=O)NNC(=O)CCN2CCN(c3ccccc3)CC2)c1,11.1%

row,Structure (SMILES),"hERG current change (%, negative = inhibition) at 1uM"
1,CCCCSc1nc2c(cnn2-c2ccccc2)c(=O)n1N,-4.95%
2,COc1ccc(N2CC(C(=O)Nc3c4c(nn3-c3ccccc3)CS(=O)(=O)C4)CC2=O)cc1 (stereo not shown),8.24%
3,Cc1ccc(Nc2nnc(SCC(=O)Nc3ccc(S(=O)(=O)N4CCOCC4)cc3)s2)cc1,1.69%
4,COc1ccc(CCN2CC(C(=O)NCCc3cccnc3)CCC2=O)cc1 (stereo not shown),6.4%
5,CCOc1ccc(CNC(=O)CCS(=O)(=O)c2ccc3c(c2)NC(=O)CO3)cc1OC,21.2%
6,Cc1nc2ccccc2c2oc(C(=O)NCCN3CCN(C)CC3)cc12,12.3%
7,O=C(C(c1ccccc1)c1ccccc1)N1CC[C@@]2(O)CCCC[C@H]2C1,7.6%
8,COc1ccc2c(c1)-c1nc(/N=C/c3ccc(O)c(OC)c3)sc1CC2,6.84%
9,Cc1ccc(NC(=O)Cc2n[nH]c(=O)c3ccccc23)cc1S(=O)(=O)N1CCCCCC1,-2.11%
10,CCOC(=O)c1c(C)nc(C)c(C(=O)OCC)c1-c1ccc(OC)cc1,-5.86%
11,COc1ccc(N2C(=O)CC(Sc3nc(C)c4c(n3)CCCC4)C2=O)cc1 (stereo not shown),4.9%
12,CN=C(NC1CCCCC1)c1ccc([N+](=O)[O-])cc1,11.1%
13,Cc1c(OCC(=O)NCCCn2ccnc2)ccc2c3c(c(=O)oc12)CCC3,5.67%
14,Cc1snc(SCC(=O)N/N=C(\N)COc2cccc(C(F)(F)F)c2)c1C#N,-1.46%
15,COc1ccc(N(CC(=O)NN=C2CCCCCCC2)S(=O)(=O)c2ccccc2)cc1,0.301%
16,Cc1cc(N)ccc1NC(=O)CN1CCCC1,14.2%
17,Cc1c(NC(=O)c2cnn3cccnc23)c(=O)n(-c2ccccc2)n1C,9.72%
18,COCC(C)n1c(SCC(=O)NC(=O)Nc2ccc3c(c2)OCCO3)nc2ccccc2c1=O (stereo not shown),11%
19,CCN1CCN(S(=O)(=O)c2cc(C(=O)O)ccc2Cl)CC1.Cl,0.0093%
20,C[C@H](NC(=O)NCCc1ccccc1)C(=O)O,-1.24%
21,O=C(Cn1cnnn1)Nc1ccccc1Cc1ccccc1,10.5%
22,COc1ccc(C2=NOC(Cn3nc(C(=O)NCc4ccc(C)cc4)cc3-c3ccccc3)C2)cc1 (stereo not shown),9.54%

row,Structure (SMILES),"hERG current change (%, negative = inhibition) at 1uM"
1,Cc1ccc(CNC(=O)CCS(=O)(=O)c2ccc3c(c2)CC(C)N3C(=O)C2CC2)cc1 (stereo not shown),0.306%
2,CCCN1C(=O)C(O)(CC(=O)c2ccc3c(c2)OCCO3)c2ccccc21 (stereo not shown),5.63%
3,COc1cccc(CNS(=O)(=O)c2csc(C(N)=O)c2)c1,28.9%
4,Cc1cc(C=C2C(=O)N(C)C(=O)N(C)C2=O)c(C)n1-c1ccccc1,18.7%
5,CC(Sc1nnc(N)s1)C(=O)NCc1ccc2c(c1)OCO2 (stereo not shown),12.3%
6,O=C(Nc1ccc(Cl)cc1)N1CCSCC1,13.4%
7,CSc1nc2c(ccc3ccccc32)o1,15.2%
8,CCNC(=S)NNC(=O)c1ccccc1OC(F)F,5.6%
9,Cc1ccc(C)c(N2C(=O)CS/C2=N\NC(=O)c2ccccc2Cl)c1,7.21%
10,CC(NC(=O)c1csc2ccccc12)C1CCCO1 (stereo not shown),-5.8%
11,Cc1ccc(C)c(OCCn2cc(/C=C(\C#N)C(=O)NCc3ccco3)c3ccccc32)c1,15.3%
12,CC1CCCC(C)N1c1ccc(S(=O)(=O)N2CCOCC2)cc1Cl (stereo not shown),12.9%
13,CC(C)CNS(=O)(=O)c1cc(C(=O)OCC(=O)N(C)C2CCS(=O)(=O)C2)c(Cl)cc1Cl (stereo not shown),3.94%
14,COc1ccc(NC(=O)CN(C)CC(=O)Nc2cccc(S(=O)(=O)N(C)c3ccccc3)c2)cc1,-3.64%
15,Br.CCOC(=O)CN1C2=NCCN2c2ccccc21,15.4%
16,CCc1nnc(NC(=O)c2ccc3ccccc3n2)s1,11.4%
17,CCC(c1nnnn1CCOC)N1CCN(Cc2ccccc2OC)CC1.Cl (stereo not shown),8.37%
18,CCN(C(=O)COC(=O)c1c(C)nn(-c2ccccc2)c1C)C1CCS(=O)(=O)C1 (stereo not shown),14.3%
19,Cc1ccnc2nc(C(=O)N3CCN(c4ccc(F)cc4)CC3)nn12,0.718%
20,Cc1ccc(S(=O)(=O)NCc2ccncc2)cc1,0.0707%
21,Cn1cc(/C=C2/SC(=O)N(CC(=O)Nc3ccc4c(c3)OCO4)C2=O)c2ccccc21,7%
22,CC1Sc2ccc(C(=O)O)cc2NC1=O (stereo not shown),27.9%

row,Structure (SMILES),"hERG current change (%, negative = inhibition) at 1uM"
1,COc1ccccc1OCC(=O)Nc1ccc2c(c1)n(C)c(=O)n2C,8.47%
2,CCCCCCn1cc(C(=O)O)c(=O)c2cc(F)c(N3CCN(C(=O)OCC)CC3)cc21,15.1%
3,Cc1ccc(C(=O)NCC(=O)OCC(=O)Nc2ccccc2[N+](=O)[O-])cc1,-18.3%
4,CCOC(=O)c1cc(C)sc1NC(=O)CSc1nccn1C,-0.109%
5,CCOc1ccc(CCNC(=O)c2c(C)noc2C)cc1OCC,-1.19%
6,Cc1nc2ccccc2c(=O)n1-c1cc([N+](=O)[O-])cc([N+](=O)[O-])c1,12.7%
7,COc1cc(NC(=O)Cn2ncc3c2-c2ccccc2OC3)cc(OC)c1OC,5.63%
8,CCOC(=O)COc1c(OC)cc(Cl)cc1C1NC(=O)NC(C)=C1C(C)=O (stereo not shown),4.58%
9,COC(=O)c1cc2ccccn2c2c(C(=O)OC)c(C(=O)OC)cc1-2,11.4%
10,CC(C(=O)N(C)C1CCS(=O)(=O)C1)N1C(=O)/C(=C/c2ccco2)SC1=S (stereo not shown),4.79%
11,O=C(Nc1nnc(-c2ccncc2)o1)C1CCCCC1,9.79%
12,CCCC(=O)Nc1c(C(=O)OCC)[nH]c2ccccc12,14.9%
13,CCOC(=O)c1c(NC(=O)N/N=C/c2ccc(O)c(OC)c2)sc(C(C)=O)c1C,9.99%
14,CCC(C)Sc1nc(O)c(Cc2ccccc2)c(=O)[nH]1 (stereo not shown),8.96%
15,CN1CCNC(=O)C1CC(=O)NCC1(c2ccccc2)CCCCC1 (stereo not shown),6.08%
16,CCCCNc1nc2ccccc2n1CC(=O)Nc1c(C)cccc1CC,-2.16%
17,Clc1ccccc1OCc1nc(-c2ccccn2)no1,7.12%
18,Cc1ccc(Nc2nc(N)nc(CSc3nc4ccccc4s3)n2)cc1,12.8%
19,CCOC(=O)c1cccc(NC(=O)CCn2nc(C)c(S(=O)(=O)N3CCCCC3)c2C)c1,2.64%
20,O=C(N/N=C/c1coc2ccc(Cl)cc2c1=O)c1ccncc1,16.3%
21,O=S(=O)(c1ccc(Br)cc1)N1CCN=C1SCc1cccnc1,-3.7%
22,CCCNS(=O)(=O)c1ccc(CCC(=O)NCc2ccc3c(c2)OCO3)cc1,-16.8%
